{
  "source": "a compilation of properties of binary mixtures (doi:10.1007/s10953-009-9494-0)",
  "experiment": "xn = mol fraction of the nth substance listed",
  "conditions": "101 kPa",
  "note": "The densities may have been worked out from excess volumes.",
  "data": [
    {"molecule": "Nc1ccccc1", "note": "+ CCCC[n+]1ccn(C)c1.F[B-](F)(F)F", "values": [
      {"measurement": "mass density", "setting": "298.15 K, x1 = 0.1011", "value": 1200.6, "unit": "kg/m3"},
      {"measurement": "mass density", "setting": "298.15 K, x1 = 0.4004", "value": 1167.1, "unit": "kg/m3"},
      {"measurement": "mass density", "setting": "298.15 K, x1 = 0.5004", "value": 1153.1, "unit": "kg/m3"},
      {"measurement": "mass density", "setting": "298.15 K, x1 = 0.6", "value": 1136.3, "unit": "kg/m3"},
      {"measurement": "mass density", "setting": "298.15 K, x1 = 0.6999", "value": 1115.7, "unit": "kg/m3"},
      {"measurement": "mass density", "setting": "298.15 K, x1 = 0.8001", "value": 1090.1, "unit": "kg/m3"},
      {"measurement": "mass density", "setting": "298.15 K, x1 = 0.8995", "value": 1058, "unit": "kg/m3"},
      {"measurement": "mass density", "setting": "303.15 K, x1 = 0.1011", "value": 1188.7, "unit": "kg/m3"},
      {"measurement": "mass density", "setting": "303.15 K, x1 = 0.2003", "value": 1179.3, "unit": "kg/m3"},
      {"measurement": "mass density", "setting": "303.15 K, x1 = 0.3", "value": 1168.8, "unit": "kg/m3"},
      {"measurement": "mass density", "setting": "303.15 K, x1 = 0.5004", "value": 1143.9, "unit": "kg/m3"},
      {"measurement": "mass density", "setting": "303.15 K, x1 = 0.6", "value": 1128.2, "unit": "kg/m3"},
      {"measurement": "mass density", "setting": "303.15 K, x1 = 0.6999", "value": 1108.7, "unit": "kg/m3"},
      {"measurement": "mass density", "setting": "303.15 K, x1 = 0.8001", "value": 1084.1, "unit": "kg/m3"},
      {"measurement": "mass density", "setting": "303.15 K, x1 = 0.8995", "value": 1053.1, "unit": "kg/m3"},
      {"measurement": "mass density", "setting": "308.15 K, x1 = 0.1011", "value": 1186.8, "unit": "kg/m3"},
      {"measurement": "mass density", "setting": "308.15 K, x1 = 0.2003", "value": 1177.4, "unit": "kg/m3"},
      {"measurement": "mass density", "setting": "308.15 K, x1 = 0.5004", "value": 1141.4, "unit": "kg/m3"},
      {"measurement": "mass density", "setting": "308.15 K, x1 = 0.6", "value": 1125.4, "unit": "kg/m3"},
      {"measurement": "mass density", "setting": "308.15 K, x1 = 0.6999", "value": 1105.9, "unit": "kg/m3"},
      {"measurement": "mass density", "setting": "308.15 K, x1 = 0.8001", "value": 1081, "unit": "kg/m3"},
      {"measurement": "mass density", "setting": "308.15 K, x1 = 0.8995", "value": 1049.7, "unit": "kg/m3"},
      {"measurement": "mass density", "setting": "313.15 K, x1 = 0.2003", "value": 1173.5, "unit": "kg/m3"},
      {"measurement": "mass density", "setting": "313.15 K, x1 = 0.4004", "value": 1151, "unit": "kg/m3"},
      {"measurement": "mass density", "setting": "313.15 K, x1 = 0.5004", "value": 1137.5, "unit": "kg/m3"},
      {"measurement": "mass density", "setting": "313.15 K, x1 = 0.6999", "value": 1101.7, "unit": "kg/m3"},
      {"measurement": "mass density", "setting": "313.15 K, x1 = 0.8001", "value": 1076.6, "unit": "kg/m3"}
    ]}
  ]
}
